# Results from the supplement of paper PMC4604168 (melanoma cell lines).
# Some of the results follow. Repeats are few or missing, and single values can be far off.
# What was measured:
# Assay in all cases: cell count relative to DMSO control; melanoma cells; higher = more viable cells
# Details in all cases: library dose: standard library concentration; 72 h; first compound 2 µM
# G361 = system: G361
# IPC-298 = system: IPC-298
# IST-MEL1 = system: IST-MEL1
# LB2518-MEL = system: LB2518-MEL
# LOXIMVI = system: LOXIMVI
# MEL-HO = system: MEL-HO
# MZ2-MEL = system: MZ2-MEL
# MeWo = system: MeWo
# RPMI7951 = system: RPMI7951
# RVH-421 = system: RVH-421
# SkMel28 = system: SkMel28
# SkMel2 = system: SkMel2
# SkMel30 = system: SkMel30
# SkMel5 = system: SkMel5
# UACC257 = system: UACC257
# UACC62 = system: UACC62
# WM115 = system: WM115
# WM1716 = system: WM1716
# WM3526 = system: WM3526
# WM1745 = system: WM1745
# 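Further: cells treated in 1,536-well plates, then fixed and DAPI-stained, with nuclei counted from automated high-throughput microscope images.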
smiles,measurement,setting,value
Cn1sc(=O)n(Cc2ccccc2)c1=O + COC(=O)c1sccc1S(=O)(=O)Nc1ccc(Nc2ccccc2)cc1OC [GSK0660] (partner dose 5 µM),cell count,G361,98.6%
same,cell count,IPC-298,96.2%
same,cell count,IST-MEL1,102%
same,cell count,LB2518-MEL,110%
same,cell count,LOXIMVI,110%
same,cell count,MEL-HO,91.2%
same,cell count,MZ2-MEL,96%
same,cell count,MeWo,86.1%
same,cell count,RPMI7951,89.5%
same,cell count,RVH-421,129%
same,cell count,SkMel28,77.3%
same,cell count,SkMel2,100%
same,cell count,SkMel30,103%
same,cell count,SkMel5,65.9%
same,cell count,UACC257,93.1%
same,cell count,UACC62,76.7%
same,cell count,WM115,105%
same,cell count,WM1716,108%
same,cell count,WM3526,93.8%
Cn1sc(=O)n(Cc2ccccc2)c1=O + COc1ccc(-c2ccc3c(N4CCOCC4)nc(N4C[C@@H](C)O[C@@H](C)C4)nc3n2)cc1CO [KU0063794] (partner dose 0.1 µM),cell count,G361,69.7%
same,cell count,IPC-298,72.8%
same,cell count,IST-MEL1,88.5%
same,cell count,LB2518-MEL,97.6%
same,cell count,LOXIMVI,65.9%
same,cell count,MEL-HO,74.7%
same,cell count,MZ2-MEL,83.6%
same,cell count,MeWo,70.2%
same,cell count,RPMI7951,71.1%
same,cell count,RVH-421,102%
same,cell count,SkMel28,74.5%
same,cell count,SkMel2,83.6%
same,cell count,SkMel30,95.3%
same,cell count,SkMel5,69.6%
same,cell count,UACC257,90.7%
same,cell count,UACC62,78.1%
same,cell count,WM115,93.3%
same,cell count,WM1716,83.5%
same,cell count,WM3526,73.9%
CCCCCCCCCCCCCCCCCCOP(=O)([O-])OC1CC[N+](C)(C)CC1 [Perifosine] + Cn1cncc1[C@@](N)(c1ccc(Cl)cc1)c1ccc2c(c1)c(-c1cccc(Cl)c1)cc(=O)n2C [tipifarnib] (partner dose 0.05 µM),cell count,G361,76.8%
same,cell count,IPC-298,85.4%
same,cell count,IST-MEL1,94.2%
same,cell count,LOXIMVI,82%
same,cell count,MEL-HO,90.3%
same,cell count,MeWo,99.3%
same,cell count,RPMI7951,27.4%
same,cell count,RVH-421,101%
same,cell count,SkMel28,42.7%
same,cell count,SkMel2,68%
same,cell count,SkMel30,93.3%
same,cell count,SkMel5,89.5%
same,cell count,UACC257,99.1%
same,cell count,UACC62,93.1%
same,cell count,WM115,58.3%
same,cell count,WM1716,50.1%
same,cell count,WM1745,87.3%
same,cell count,WM3526,78.1%
Cn1sc(=O)n(Cc2ccccc2)c1=O + C=C(c1ccc(C(=O)O)cc1)c1cc2c(cc1C)C(C)(C)CCC2(C)C [Bexarotene] (partner dose 10 µM),cell count,G361,72.5%
same,cell count,IPC-298,66.3%
same,cell count,IST-MEL1,77.7%
same,cell count,LOXIMVI,100%
same,cell count,MEL-HO,104%
same,cell count,MeWo,104%
same,cell count,RPMI7951,79.1%
same,cell count,RVH-421,123%
same,cell count,SkMel28,73.8%
same,cell count,SkMel2,81.3%
same,cell count,SkMel30,78.5%
same,cell count,SkMel5,91.3%
same,cell count,UACC257,76.9%
same,cell count,UACC62,70.6%
same,cell count,WM115,109%
same,cell count,WM1716,83.8%
same,cell count,WM1745,106%
same,cell count,WM3526,81.9%
C[C@@H](N)c1ccc(C(=O)Nc2ccnc3[nH]ccc23)cc1 + COc1cc2ncnc(Nc3ccc(Oc4ccccc4)cc3)c2cc1OC [SrcI1] (partner dose 10 µM),cell count,G361,49.3%
same,cell count,IPC-298,66.3%
same,cell count,IST-MEL1,76.2%
same,cell count,LB2518-MEL,130%
same,cell count,LOXIMVI,80.1%
same,cell count,MEL-HO,54.8%
same,cell count,MZ2-MEL,46.3%
same,cell count,MeWo,61%
same,cell count,RPMI7951,28.9%
same,cell count,RVH-421,22.3%
same,cell count,SkMel28,72.8%
same,cell count,SkMel2,81.2%
same,cell count,SkMel30,67.1%
same,cell count,SkMel5,40.1%
same,cell count,UACC257,46.3%
same,cell count,UACC62,44.9%
same,cell count,WM115,76.2%
same,cell count,WM1716,43.7%
same,cell count,WM3526,53.7%
CCCCCCCCCCCCCCCCCCOP(=O)([O-])OC1CC[N+](C)(C)CC1 [Perifosine] + O=C1NC(=O)/C(=C/c2ccc(-c3ccc(F)cc3O)o2)S1 [AS252424] (partner dose 5 µM),cell count,G361,85.3%
same,cell count,IPC-298,81.8%
same,cell count,IST-MEL1,102%
same,cell count,LB2518-MEL,95.6%
same,cell count,LOXIMVI,110%
same,cell count,MEL-HO,83.9%
same,cell count,MZ2-MEL,80.5%
same,cell count,MeWo,96.7%
same,cell count,RPMI7951,59.8%
same,cell count,RVH-421,121%
same,cell count,SkMel28,100%
same,cell count,SkMel2,84.9%
same,cell count,SkMel30,90.9%
same,cell count,SkMel5,90.7%
same,cell count,UACC257,96.8%
same,cell count,UACC62,79.1%
same,cell count,WM115,92.4%
same,cell count,WM1716,96.8%
same,cell count,WM3526,70.9%
CCCCCCCCCCCCCCCCCCOP(=O)([O-])OC1CC[N+](C)(C)CC1 [Perifosine] + O=S(=O)(c1ccccc1)N(CC(F)(F)F)c1ccc(C(O)(C(F)(F)F)C(F)(F)F)cc1 [T0901317] (partner dose 7 µM),cell count,G361,77.7%
same,cell count,IPC-298,80.3%
same,cell count,IST-MEL1,74.8%
same,cell count,LB2518-MEL,77.9%
same,cell count,LOXIMVI,88.2%
same,cell count,MEL-HO,72.6%
same,cell count,MZ2-MEL,94.3%
same,cell count,MeWo,82.5%
same,cell count,RPMI7951,45.8%
same,cell count,RVH-421,80.6%
same,cell count,SkMel28,67.4%
same,cell count,SkMel2,80.4%
same,cell count,SkMel30,90.4%
same,cell count,SkMel5,62.6%
same,cell count,UACC257,67.5%
same,cell count,UACC62,52.2%
same,cell count,WM115,74.7%
same,cell count,WM1716,79.8%
same,cell count,WM3526,90.4%
CCCCCCCCCCCCCCCCCCOP(=O)([O-])OC1CC[N+](C)(C)CC1 [Perifosine] + COc1ccc2c(c1)CCC1C2CCC2(C)C(NCCCCCCN3C(=O)C=CC3=O)CCC12 [U73122] (partner dose 2 µM),cell count,G361,82.5%
same,cell count,IPC-298,85.5%
same,cell count,IST-MEL1,86.3%
same,cell count,LB2518-MEL,92.5%
same,cell count,LOXIMVI,153%
same,cell count,MEL-HO,92.3%
same,cell count,MZ2-MEL,96.6%
same,cell count,MeWo,71%
same,cell count,RPMI7951,10.9%
same,cell count,RVH-421,105%
same,cell count,SkMel28,53.7%
same,cell count,SkMel2,85.3%
same,cell count,SkMel30,83.2%
same,cell count,SkMel5,121%
same,cell count,UACC257,113%
same,cell count,UACC62,79.3%
same,cell count,WM115,84.4%
same,cell count,WM1716,79%
same,cell count,WM3526,80.6%
C[C@@H](N)c1ccc(C(=O)Nc2ccnc3[nH]ccc23)cc1 + c1cc(-c2cnn3cc(-c4ccc(OCCN5CCCCC5)cc4)cnc23)ccn1 [Dorsomorphin] (partner dose 2 µM),cell count,G361,63.2%
same,cell count,IPC-298,89.4%
same,cell count,IST-MEL1,90.6%
same,cell count,LB2518-MEL,65.5%
same,cell count,LOXIMVI,96.8%
same,cell count,MEL-HO,86.4%
same,cell count,MZ2-MEL,47.2%
same,cell count,MeWo,47.3%
same,cell count,RPMI7951,40.1%
same,cell count,RVH-421,78.2%
same,cell count,SkMel28,64.1%
same,cell count,SkMel2,65.1%
same,cell count,SkMel30,109%
same,cell count,SkMel5,58.5%
same,cell count,UACC257,67.2%
same,cell count,UACC62,72.9%
same,cell count,WM115,75.5%
same,cell count,WM1716,33.7%
same,cell count,WM3526,86.5%
